Hit rate of the full screen: of about 16,000 compounds, about 120 (0.75%) were called active. Not shown: some 4% with an inconclusive outcome. Calls come from the whole dose curve; as a rule, active = well fitted inhibition curve with a large enough effect; inconclusive = small, poorly fitted or top-dose-only effect; inactive = no such curve, though single readings can be large or run the other way. The list shows a part of the results.

Sequence of UniProt O95398 (O95398 whole entry, looked up): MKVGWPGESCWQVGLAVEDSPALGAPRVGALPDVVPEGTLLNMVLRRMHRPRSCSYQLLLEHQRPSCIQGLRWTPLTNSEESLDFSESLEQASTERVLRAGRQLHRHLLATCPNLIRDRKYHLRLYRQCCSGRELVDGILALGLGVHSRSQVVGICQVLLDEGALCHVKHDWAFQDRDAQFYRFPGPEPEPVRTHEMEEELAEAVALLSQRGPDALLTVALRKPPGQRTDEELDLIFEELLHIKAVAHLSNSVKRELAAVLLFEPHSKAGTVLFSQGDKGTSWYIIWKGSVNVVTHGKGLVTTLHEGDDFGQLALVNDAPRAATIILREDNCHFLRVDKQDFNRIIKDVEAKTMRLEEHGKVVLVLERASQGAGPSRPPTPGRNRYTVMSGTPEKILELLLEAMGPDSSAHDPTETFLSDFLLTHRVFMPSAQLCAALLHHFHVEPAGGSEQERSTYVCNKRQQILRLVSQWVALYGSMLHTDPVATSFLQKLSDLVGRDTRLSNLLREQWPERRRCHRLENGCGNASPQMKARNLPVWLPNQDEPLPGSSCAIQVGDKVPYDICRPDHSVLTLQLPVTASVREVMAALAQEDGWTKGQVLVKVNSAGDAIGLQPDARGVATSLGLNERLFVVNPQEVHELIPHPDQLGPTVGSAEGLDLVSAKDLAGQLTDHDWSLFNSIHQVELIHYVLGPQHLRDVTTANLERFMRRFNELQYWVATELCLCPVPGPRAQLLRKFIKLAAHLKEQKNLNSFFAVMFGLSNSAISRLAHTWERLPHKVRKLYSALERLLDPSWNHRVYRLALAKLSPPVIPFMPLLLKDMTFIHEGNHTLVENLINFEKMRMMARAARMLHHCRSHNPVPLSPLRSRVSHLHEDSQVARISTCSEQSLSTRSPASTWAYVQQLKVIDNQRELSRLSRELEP

The assay concerns the target Rap guanine nucleotide exchange factor 3 (Homo sapiens) (UniProt O95398). In words: Validation qHTS for antagonist of cAMP-regulated guanine nucleotide exchange factor 3 (EPAC1). Note: nearly all actives have a fitted effect of over 75% in size. The conditions noted are these: EPAC1 Rap1B-BODIPY-GDP exchange, fluorescence; series mostly up to 150 µM; activity change, negative = inhibition: at the top concentration. The procedure, abridged:
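EPAC1 (100 nM) mixed with 250 nM RAP1B-BODIPY-GDP and 50 uM GDP; compounds in concentration series, 5 min at room temperature. Fluorescence (ex 480/em 540 nm) read every 5 min for 30 min; normalized to ATA control and DMSO.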
For orientation: In qHTS, concentration-response curves come from the screen itself.
With `COc1cccc(Cn2c(=O)c(-c3ccc(Cl)cc3)nc3cnc(N(C)C)nc32)c1`, the “activity change, negative = inhibition” value was inactive: 2.19%. Turning to `CCCCN1CC[C@H]2C=CC[C@@H](C(=O)N3CCOCC3)[C@H]2C1=O`, the “activity change, negative = inhibition” value was inactive: -0.486%. In the case of `Cc1onc(-c2ccccc2)c1C(=O)N[C@@H]1C(=O)N2[C@@H](C(=O)O)C(C)(C)S[C@@H]12` it was inactive: 27%. The result for `COc1cc(-c2noc(C)c2-c2ccc(N(C)C)nc2)cc(OC)c1OC` reads inactive: -5.82%; that for `CN(Cc1ccco1)c1nc(-c2ccccc2C(F)(F)F)nc2ccccc12`, inactive: -17.7%. In the case of `COc1ccccc1-c1ccc2ncnc(NCCN3CCOCC3)c2c1` it was inactive: 3.47%; in that of `COc1ccc(OC)c(-c2cc(Cl)c3c(c2)CC(CNC(=O)[C@@H]2CCCN2C(C)=O)O3)c1` (stereo partly specified), inactive: 16.9%. For the molecule `Cc1ccccc1C1(CC(=O)N2CCOCC2)CC(=O)N(Cc2cccnc2)C1=O` (stereo unspecified), the “activity change, negative = inhibition” value was inactive: 12%. For the molecule `O=C(O)C[C@H]1c2cc(C(F)(F)F)ccc2S(=O)(=O)N1C1CCCCC1`, the “activity change, negative = inhibition” value was inactive: -11.6%. In the case of `COc1cc(C(C)=O)ccc1OCCCN1CCC(c2noc3cc(F)ccc23)CC1` it was inactive: -1.17%; in that of `CCOC(=O)[C@H](CCc1ccccc1)N[C@H]1CCCN2CCC[C@@H](C(=O)O)N2C1=O`, inactive: 33.8%; in that of `CCCC1O[C@@H]2C[C@H]3[C@@H]4CCC5=CC(=O)C=C[C@]5(C)[C@H]4[C@@H](O)C[C@]3(C)[C@]2(C(=O)CO)O1` (stereo partly specified), “inactive”. The result for `NCCC1CCCC(CCN)N1` (stereo unspecified) reads inactive: -4.74% [at 75.8 µM]; that for `CCS(=O)(=O)Nc1cc(C(=O)N2CCC[C@H]2CO)c2c(c1)nc(-c1ccccc1)n2C`, inactive: 9.25%; that for `c1ccc(-c2ccc(N3CC[C@@]4(CCCNC4)C3)cc2)cc1`, inactive: -14.8%. In the case of `Cc1cc(COC(=O)C2N3C(=O)[C@@H](NC(=O)COc4ccccc4)[C@H]3SC2(C)C)on1` (stereo partly specified) it was inactive: -2.62%; in that of `COc1cc(-c2nc(C)cnc2C)cc2c1OCCN(C(=O)Cc1cc(OC)c(OC)c(OC)c1)C2`, inactive: 28.2%. As to `CC[C@H]1C(=O)[C@@H](Cc2ccccc2)[C@@H]2CCN3C(=O)CCC[C@H]1[C@H]23`, the “activity change, negative = inhibition” value is inactive: -15%.

For `CN1CCCCCC1C(=O)NCC1Cc2cc(-c3cnccn3)ccc2O1` (stereo unspecified), the “activity change, negative = inhibition” value is inactive: 11.4%. The result for `COC(=O)c1c(C)[nH]c(C)c1C(=O)c1ccccc1Cc1ccccc1` reads “inactive”. In the case of `Cc1ccc(CN2C[C@H](Sc3ccccn3)C[C@H]2C(=O)Nc2ccc3sc(C)nc3c2)s1` it was inactive: 12.8%.

For the molecule `CC(C)CN1CCC2(CC1)CCN(C(=O)c1ccco1)CC2`, the “activity change, negative = inhibition” value was inactive: 16.5%. The result for `CN(CCO)C(=O)c1cn(C2CCN(Cc3cccc(C(F)(F)F)c3)CC2)nn1` reads inactive: 11.4%; that for `Cc1ccc2oc(-c3ccccc3)c(O)c(=O)c2c1`, inactive: 4.29%; that for `O=C(c1ccco1)N(Cc1cc2cc3c(cc2nc1N1CCOCC1)CCC3)CC1CCCO1` (stereo unspecified), inactive: -0.969%.

On to `C=C[C@@H]1c2ccccc2N(S(=O)(=O)c2ccc(C)cc2)[C@H](c2ccccc2C(F)(F)F)C1(C#N)C#N`, for which the “activity change, negative = inhibition” value is inactive: -16.5%.
